Source: PubChem BioAssay AID1454 (National Center for Advancing Translational Sciences (NCATS), 2008)
In all, about 130,000 compounds went through this assay and about 550 (0.42%) were called active. The shares of active, inactive and inconclusive entries below differ from those in the screen. Calls come from the whole dose curve; as a rule, active = well fitted inhibition curve with a large enough effect; inconclusive = small, poorly fitted or top-dose-only effect, or effect the other way; inactive = flat fitted curve, though single readings scatter. Potencies of inconclusive entries are left out as doubtful fits.

Test: qHTS Assay for Inhibitors of the ERK Signaling Pathway using a Homogeneous Screening Assay; Stimulation with EGF; note: nearly all actives have a fitted effect of over 55% in size;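 for activity change, negative = inhibition: plate controls were stimulated vehicle wells for no effect and unstimulated vehicle basal for full effect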
Details: HEK293-V1b, EGF-stimulated phospho-ERK AlphaScreen; activity change, negative = inhibition: at the top concentration
Outline: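 After overnight plating in 1% FBS, HEK293-V1b cells received test compound for half an hour, then a 5 min pulse of EGF (25 nM); ERK phosphorylation in lysates was read by bead-based AlphaScreen.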
Potency is the fitted concentration of half-maximal effect; tags give direction and shape of the fitted curve.

SMILES | Potency | activity change, negative = inhibition
O=C(Nc1ccccc1-c1nc2ccccc2[nH]1)c1ccc(N2C(=O)CCC2=O)cc1 | inconclusive [inhibitor, partial curve] | 
O=C(OC(c1ccccc1)c1nccc2ccccc12)c1cc([N+](=O)[O-])cc([N+](=O)[O-])c1 (stereo not drawn) | active: 15.8 µM | 
CCOc1ccc(NC(=S)NCCN2CCN(Cc3ccccc3)CC2)cc1 | inconclusive [inhibitor, partial curve] | 
CCc1c2c(nc3c(C(C)C)cccc13)-c1cccc(=O)n1C2 |  | inactive: -5.02%
C/C(=N\NC(=O)c1ccc(O)cc1)c1ccc2c(c1)Nc1ccccc1S2 | inconclusive [inhibitor, single point] | 
O=C(Nc1nonc1NC(=O)c1cccs1)c1cccs1 | inconclusive [inhibitor, single point] | 
CCOC(=O)/C(=N/Nc1ccc(OC)cc1)N1CCCc2ccccc21 | inconclusive [inhibitor, single point] | 
COc1cccc2c1C(=O)c1c(O)c3c(c(O)c1C2=O)C[C@@](O)(C(=O)CO)C[C@@H]3O[C@H]1C[C@H](N)[C@H](O)[C@H](C)O1 | active: 28.2 µM | 
O=C(c1cc(C(F)(F)F)cc(C(F)(F)F)c1)N1CCC2(CC1)CN(c1ccccn1)C2 | inconclusive [inhibitor, partial curve] | 
Cc1ccc(N2C(=S)SC3CS(=O)(=O)CC32)cc1 (stereo not drawn) |  | inactive: 1.83%
O=C(NCc1ccccc1)C(=O)Nc1cccc(C(=O)O)c1 | inconclusive [activator, partial curve] | 
c1coc(-c2ccnc(-n3cccc3)n2)c1 | inconclusive [inhibitor, single point] | 
COc1ccc(C2C(C(=O)c3ccccc3)N3c4ccccc4C=CC3C2[N+](=O)[O-])cc1 (stereo not drawn) | inconclusive [inhibitor, single point] | 
CC(=O)c1ccc(N2CCc3ccccc3C2)c([N+](=O)[O-])c1 | inconclusive [inhibitor, single point] | 
CCOC(=O)C1=C[C@@]2(CC)CCCN3CCc4c(n1c1ccccc41)C32 (stereo partly drawn) |  | inactive: 7.32%
CC(=O)c1c(N)nc2n(c1=O)CCCCC2 | inconclusive [activator, partial curve] | 
C=CCOC(=O)NC(c1ccc(F)c(F)c1)C(C(=O)CCl)C(=O)OC (stereo not drawn) |  | inactive: -9.18%
COc1ccc(CNC(=O)CSc2nc3[nH]ncc3c(=O)n2-c2ccccc2Br)cc1 | inconclusive [inhibitor, single point] | 
COC(=O)C=P(c1ccccc1)(c1ccccc1)c1ccccc1 |  | inactive: -3%
COC(=O)[C@@H]1C[C@@]2(O)[C@@H](O)[C@@H](O)[C@@H](O)C[C@H]2N1Cc1cc(F)ccc1F |  | inactive: -0.867%
CC1C/C(=C/c2ccccn2)C(=O)/C(=C/c2ccccn2)C1 (stereo not drawn) |  | inactive: -3.58%
COC(=O)[C@@H]1C[C@@]2(O)[C@@H](O)[C@@H](O)[C@@H](O)C[C@H]2N1CC1CC1 |  | inactive: -3.33%

SMILES | Potency | activity change, negative = inhibition
Cc1ccccc1OCC(O)Cn1c(=N)n(Cc2ccccc2)c2ccccc21 (stereo not drawn) | active: 31.6 µM | 
OCCOCCN1CCN(C2=Nc3ccccc3Sc3ccccc32)CC1 | inconclusive [inhibitor, single point] | 
COC(=O)[C@@]1(Cc2ccc(OC)cc2)[C@H]2c3cc(C(=O)N4CCCC4)n(Cc4ccc(Cl)c(C(F)(F)F)c4)c3C[C@H]2CN1C(=O)c1ccccc1 |  | inactive: -8.98%
CCCc1nc2c(c(=O)c3ccccc3n2C)c(=O)n1-c1cc(C)cc(C)c1 |  | inactive: 2.8% [at 57.5 µM]
CC(C)(C)OC(=O)NCCCCCNC(=O)c1[nH]cnc1C(=O)N[C@@H](Cc1ccccc1)C(=O)OCc1ccccc1 | inconclusive [inhibitor, partial curve] | 
O=C(N/N=C/c1ccc(-c2cccc([N+](=O)[O-])c2)o1)c1ccc([N+](=O)[O-])cc1 | inconclusive [inhibitor, partial curve, poor fit] | 
Cc1cccc2sc(NNC(=O)c3ccc4c(c3)OCCO4)nc12 | inconclusive [inhibitor, partial curve] | 
Fc1cccc(NC(=S)NNc2c3ccccc3nc3ccccc23)c1 | inconclusive [inhibitor, single point] | 
COc1ccc(NC(=O)N2c3ccccc3C(C)=CC2(C)C)cc1 |  | inactive: -0.0979%
Cc1ccc(NC(=O)CCC(=O)N/N=C/C=C/c2ccccc2)cc1 |  | inactive: 1.14%
O=[N+]([O-])c1ccc(-c2nc(-c3ccc(F)cc3)c(-c3ccncc3)[nH]2)cc1 | inconclusive [inhibitor, single point] | 
CCN(CC(=O)Nc1ccccc1OC)CC(=O)Nc1ccccc1-c1ccccc1 | inconclusive [inhibitor, single point] | 
Cc1c(C(=O)c2ccc(Cl)c([N+](=O)[O-])c2)c2ccccn2c1CCC#N | inconclusive [inhibitor, full curve, poor fit] | 
Cc1ccc(C)c(S(=O)(=O)N2CCN(Cc3ccc(O)c4ncccc34)CC2)c1 | inconclusive [inhibitor, single point] | 
CN(C)c1ccc(-c2cccc(C3CC=CC4C3C(=O)N(Cc3ccccc3)C4c3ccc4ccccc4c3)c2)cc1 (stereo not drawn) | inconclusive [inhibitor, partial curve] | 
COc1ccc(-n2cccc2/C=C2/NC(=O)N(c3cccc(Cl)c3)C2=O)cc1 |  | inactive: -4.02%
O=C(Nc1ccccc1)c1ccc(-c2ccc(Br)cc2)o1 | inconclusive [inhibitor, single point] | 
NCCC(O)C(=O)NC1C[C@@H](N)[C@H](O[C@@H]2OC(CN)C(O)C(O)C2O)C(O)[C@H]1O[C@H]1OC(CO)C(O)C(N)C1O (stereo partly drawn) |  | inactive: -1.12%
O=[N+]([O-])c1ccc(/C=N/n2c(CO)nc3ccccc32)s1 |  | inactive: 5.43%
CC1CN(C(=O)COC(=O)c2ccc(Cl)nc2)CC(C)O1 (stereo not drawn) |  | inactive: 3.27%
COc1cccc(-c2ccc(SCC(=O)N3CCN(c4ccccc4)CC3)nn2)c1 | inconclusive [inhibitor, single point] | 
